# Data from the supplement of paper PMC9135407.
# Where “and” joins values, the source holds several entries; their conditions need not be identical. Identical values can stand only once. Counter-ions that a name gives are not always drawn. Screen size: about 5,800 compounds; about 620 (11%) showed activity.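 The calls were made as follows: active = score above a cut-off or among the top three wells of a plate; in these data no inactive exceeds 0.85.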 The list shows a part of the results, in another mix than the full data.
# Test system: primary human hepatic stellate cells (donor 1)
# Assay: scaled lipid accumulation score (0 = DMSO-like, 1 = nortriptyline-like); higher = stronger HSC inactivation (lipid re-accumulation), active = hit call of the paper
# Details: 48 h
# Experimental: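 Primary lipid accumulation screen in primary human hepatic stellate cell myofibroblasts (donor 1, passage 8) in 384-well plates. 100 nL of library compound was pin-transferred into 30 µL medium in duplicate, and cells were treated for 48 h. The 'Scaled' score combines distance from plate baseline, toxicity and reproducibility penalties, and is normalised to nortriptyline (positive) and DMSO (negative) controls on each plate. A hit is defined as scaled >0.85 or among the top 3 wells per plate.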
# [1] = library stock concentration: 10 mM
# [2] = library stock concentration: 3.33 mM
# [3] = library stock concentration: 1 mM
structure (smiles),measurement,setting,value
Cl.N=C(N)NCCC[C@H](N)C(=O)O,scaled lipid accumulation score,[1],inactive: ≤ 0
Nc1nc(OCc2ccccc2)c2nc[nH]c2n1 [O6-benzylguanine],scaled lipid accumulation score,[1],inactive: 0.24
CC1=C(/C=C/C(C)=C/C=C/C(C)=C\C(=O)O)C(C)(C)CCC1 [Isotretinoin],scaled lipid accumulation score,,inactive: ≤ 0
same,scaled lipid accumulation score,[2],inactive: ≤ 0
same,scaled lipid accumulation score,[1],inactive: 0.098 and inactive: 0.099
CC1=C(/C=C/C(C)=C/C=C/C(C)=C\C(=O)O)C(C)(C)CCC1 [Isotretinon],scaled lipid accumulation score,library stock concentration: 6.7 mM,inactive: 0.034
same,scaled lipid accumulation score,[1],inactive: ≤ 0
CC1=C(/C=C/C(C)=C/C=C/C(C)=C\C(=O)O)C(C)(C)CCC1 [13-cis retinoic acid],scaled lipid accumulation score,[3],inactive: ≤ -0.003
CC1=C(/C=C/C(C)=C/C=C/C(C)=C\C(=O)O)C(C)(C)CCC1 [13-cis-retinoic acid],scaled lipid accumulation score,[1],inactive: ≤ 0
CC/C(=C(/CC)c1ccc(O)cc1)c1ccc(O)cc1 [Diethylstilbestrol],scaled lipid accumulation score,,inactive: ≤ 0
same,scaled lipid accumulation score,[3],inactive: ≤ 0
same,scaled lipid accumulation score,[2],inactive: ≤ 0
same,scaled lipid accumulation score,library stock concentration: 7.5 mM,inactive: ≤ 0 and inactive: ≤ -0.001
same,scaled lipid accumulation score,[1],inactive: ≤ 0
CC(C)(Sc1ccc(CCN(CCCCC2CCCCC2)C(=O)NC2CCCCC2)cc1)C(=O)O,scaled lipid accumulation score,[3],inactive: 0.019
same,scaled lipid accumulation score,[1],inactive: ≤ -0.07 and inactive: ≤ -0.006
NC1C=CC=C(C(=O)O)C1 (configuration not stated) [Gabaculine hydrochloride],scaled lipid accumulation score,[1],inactive: ≤ 0
NS(=O)(=O)c1ccc(N=Nc2c(O)[nH]c3ccc(Br)cc23)cc1 [Cdk2 Inhibitor II],scaled lipid accumulation score,[2],inactive: ≤ 0
CCCCC[C@H](O)/C=C/[C@H]1C=CC(=O)[C@@H]1CCCCCCC(=O)OCC [Prostaglandin A1 ethyl ester],scaled lipid accumulation score,[3],inactive: ≤ 0
Cc1cc(-c2ccccc2)nnc1NCCN1CCOCC1 [Minaprine dihydrochloride],scaled lipid accumulation score,,inactive: 0.11
Cc1cc(-c2ccccc2)nnc1NCCN1CCOCC1 [Minaprine hydrochloride],scaled lipid accumulation score,library stock concentration: 5.4 mM,inactive: ≤ 0
same,scaled lipid accumulation score,[1],inactive: 0.161
NC(N)=Nc1nc(CSCC/C(N)=N/S(N)(=O)=O)cs1 [Famotidine],scaled lipid accumulation score,,inactive: ≤ 0
same,scaled lipid accumulation score,[2],inactive: ≤ 0
same,scaled lipid accumulation score,library stock concentration: 5.9 mM,inactive: ≤ -0.006 and inactive: ≤ 0
same,scaled lipid accumulation score,[1],inactive: ≤ 0 and inactive: ≤ -0.07
NC(N)=Nc1nc(CSCC/C(N)=N/S(N)(=O)=O)cs1,scaled lipid accumulation score,[1],inactive: 0.012
Nc1ccc(CCNc2ncnc3c2ncn3C2OC(CO)C(O)C2O)cc1 (configuration not stated) [N6-2-(4-Aminophenyl)ethyladenosine],scaled lipid accumulation score,[1],inactive: 0.102
COc1ccc(-c2ccc3c(N4CCOCC4)nc(N4C[C@@H](C)O[C@@H](C)C4)nc3n2)cc1CO,scaled lipid accumulation score,library stock concentration: 400 uM,inactive: ≤ -0.005
same,scaled lipid accumulation score,library stock concentration: 2 mM,inactive: ≤ -0.005
same,scaled lipid accumulation score,[2],inactive: ≤ 0
same,scaled lipid accumulation score,[1],inactive: ≤ 0 and inactive: ≤ -0.005
